This is one part of the list. Single values are uncertain, as repeats are few or missing.

This is an account of results in the supplement of paper PMC4604168 (melanoma cell lines).
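Also: cell number obtained by counting DAPI-stained nuclei in high-throughput microscope images with image analysis software, screen run in 1,536-well plates.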

The test system of this experiment is WM1716. Description: cell count relative to DMSO control; melanoma cells; higher = more viable cells. The following applies: library dose: low library concentration; 72 h.
The compound `Nc1ncn([C@H]2C[C@H](O)[C@@H](CO)O2)c(=O)n1` [decitabine] + O=C(CCCCCCC(=O)Nc1ccccc1)NO [vorinostat] (first compound 0.1 µM, partner dose 0.08 µM) came in with a cell count of 75.3%.

In the case of `CC(=O)c1c(C)c2cnc(Nc3ccc(N4CCNCC4)cn3)nc2n(C2CCCC2)c1=O` [palbociclib] + COc1ccc(-c2ccc3c(N4CCOCC4)nc(N4C[C@@H](C)O[C@@H](C)C4)nc3n2)cc1CO [KU0063794] (first compound 0.04 µM, partner dose 0.02 µM), the cell count was 62.5%.

`Nc1nc(F)nc2c1ncn2[C@@H]1O[C@H](CO)[C@@H](O)[C@@H]1O` [fludarabine] + O=C(O)C(=O)Nc1sc2c(c1C(=O)O)CCNC2 [TCS401] (first compound 0.2 µM, partner dose 1.66667 µM) came in with a cell count of 107%.

`Nc1ncn([C@H]2C[C@H](O)[C@@H](CO)O2)c(=O)n1` [decitabine] + COc1cc(Nc2ncc(F)c(Nc3ccc4c(n3)NC(=O)C(C)(C)O4)n2)cc(OC)c1OC [Tamatinib] (first compound 0.1 µM, partner dose 0.4 µM) had a cell count of 66.5%.

`Nc1nc(F)nc2c1ncn2[C@@H]1O[C@H](CO)[C@@H](O)[C@@H]1O` [fludarabine] + CCc1ccc(CCOc2ccc(CC3SC(=O)NC3=O)cc2)nc1 [pioglitazone] (first compound 0.2 µM, partner dose 2 µM) yielded a cell count of 88.6%.

`Nc1ccn([C@@H]2O[C@H](CO)[C@@H](O)C2(F)F)c(=O)n1` [gemcitabine] + O=C(Nc1cccc(Cl)c1)Nc1ncc(CCNc2ncnc3ccsc23)s1 [SNS314] (first compound 0.0004 µM, partner dose 0.0008 µM): the cell count is 114%.
